Tested on: patients with treatment-resistant major depressive disorder (TRD)
Assay: Phase 1/2 clinical trial of inhaled 5-MeO-DMT, safety and tolerability
Conditions: Part A, in both groups (12 mg and 18 mg)

Structure (SMILES): COc1ccc2[nH]cc(CCN(C)C)c2c1 [5-MeO-DMT]
- patients with at least one ADR: 3 of 4

From US20250213530A1 (GH RESEARCH IRELAND LIMITED, priority 2022, published 2025)
